The whole screen tested about 310,000 compounds, of which about 2,200 (0.71%) showed an effect of 50% or more. The effect is printed as a negative number. This is one part of the list.
Molecular target: human ether-à-go-go-related gene (hERG) potassium channel (human, UniProt Q12809)
Assay: primary screen, population patch clamp on CHO cells stably expressing hERG

human ether-à-go-go-related gene (hERG) potassium channel, sequence (Q12809 whole entry, looked up): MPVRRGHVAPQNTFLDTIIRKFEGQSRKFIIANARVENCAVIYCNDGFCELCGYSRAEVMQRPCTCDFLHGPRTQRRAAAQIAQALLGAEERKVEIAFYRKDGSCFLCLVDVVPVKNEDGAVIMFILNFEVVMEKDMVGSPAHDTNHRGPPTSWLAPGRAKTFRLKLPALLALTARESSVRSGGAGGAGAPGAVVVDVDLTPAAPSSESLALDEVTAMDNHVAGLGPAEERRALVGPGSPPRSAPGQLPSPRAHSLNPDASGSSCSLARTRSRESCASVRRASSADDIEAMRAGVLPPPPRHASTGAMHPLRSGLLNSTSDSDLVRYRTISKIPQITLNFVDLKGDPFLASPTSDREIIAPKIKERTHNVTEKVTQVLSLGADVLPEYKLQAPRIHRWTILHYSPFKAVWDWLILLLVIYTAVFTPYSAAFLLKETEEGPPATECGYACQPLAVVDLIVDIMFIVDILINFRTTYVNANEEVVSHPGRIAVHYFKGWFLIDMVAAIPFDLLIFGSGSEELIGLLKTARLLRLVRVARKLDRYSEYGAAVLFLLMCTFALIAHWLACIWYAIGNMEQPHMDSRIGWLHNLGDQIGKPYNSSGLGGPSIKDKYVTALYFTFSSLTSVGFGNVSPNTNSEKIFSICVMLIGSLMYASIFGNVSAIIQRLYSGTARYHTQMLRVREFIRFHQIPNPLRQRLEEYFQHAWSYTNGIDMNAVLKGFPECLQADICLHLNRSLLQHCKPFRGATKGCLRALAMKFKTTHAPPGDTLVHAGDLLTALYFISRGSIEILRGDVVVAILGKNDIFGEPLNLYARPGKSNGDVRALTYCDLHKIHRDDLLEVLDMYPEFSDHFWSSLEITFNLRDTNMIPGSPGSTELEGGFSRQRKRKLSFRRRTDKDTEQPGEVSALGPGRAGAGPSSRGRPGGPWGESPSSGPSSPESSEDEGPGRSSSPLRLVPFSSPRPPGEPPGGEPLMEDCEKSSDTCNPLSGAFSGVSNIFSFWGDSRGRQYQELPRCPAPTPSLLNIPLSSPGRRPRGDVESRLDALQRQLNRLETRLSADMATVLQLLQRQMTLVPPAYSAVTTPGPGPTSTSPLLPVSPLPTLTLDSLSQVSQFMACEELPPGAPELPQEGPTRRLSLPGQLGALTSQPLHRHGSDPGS

| Compound | hERG current change (%, negative = inhibition) at 1uM [%] |
| --- | --- |
| CCOP(=O)(OCC)OCC | 12.7 |
| CC(C)(C)NC(=O)C(=O)NNC(=O)C12CC3CC(CC(C3)C1)C2 | 9.04 |
| COC(=O)c1ccc(COC(=O)C2CC(O)CN2S(=O)(=O)c2ccc([N+](=O)[O-])cc2)cc1 (stereo not shown) | 3.85 |
| Nc1nc(SCC(=O)Nc2ncc(C(F)(F)F)cc2Cl)n[nH]1 | 11.5 |
| CC(CCc1ccccc1)NC(C)C(O)c1ccc(O)cc1.Cl (stereo not shown) | -48.6 |
| COc1ccc(-c2cc(CCCC(=O)NCCc3cc(OC)ccc3OC)no2)cc1 | 6.62 |
| O=C(c1cc2ncc(Br)cn2n1)N1CCOCC1 | 13.2 |
| O=C(C[n+]1cccc(NC(=O)c2ccccc2)c1)c1cccc([N+](=O)[O-])c1.[Br-] | -39.6 |
| CCOC(=O)N1CCC(N2C(=O)c3ccc(C(=O)Nc4cccc(OC)c4)cc3C2=O)CC1 | 9.99 |
| Cc1ccc(-c2nnc(-c3ccccc3Br)o2)cc1 | 3.17 |
| Cc1ccc2nc(C)cc(N/N=C/c3cccnc3)c2c1 | 2.91 |
| Cc1ccccc1CSc1n[nH]c(NS(=O)(=O)c2ccccc2)n1 | 10.4 |
| COc1ccc(O)c(CN2CCN(CCc3ccccc3)C(CCO)C2)c1 (stereo not shown) | -1.29 |
| CCOc1ccc(S(=O)(=O)N(CC)CC(=O)N2CCOCC2)cc1C | 15.9 |
| COc1ccc(N(C)S(=O)(=O)c2cccc(C(=O)NC3CCCC(C)C3C)c2)cc1 (stereo not shown) | -4.13 |
| COc1ccc(NC(=O)c2cc(-c3ccc(C)cc3)on2)cc1OC | 14.5 |
| CN(C)c1cc[n+](CC(=O)c2cccs2)cc1.[Cl-] | 10 |
| CCCn1c(Sc2nc3c(c(=O)[nH]c(=O)n3C)n2CCC)nc2c1c(=O)[nH]c(=O)n2C | 15 |
| Cc1ccc(S(=O)(=O)N2CCN(C(=O)COC(=O)CCCOc3ccccc3)CC2)c(C)c1 | 5.27 |
| COc1ccc(NS(=O)(=O)c2cccc(C(=O)NCC3(N(C)C)CCCCC3)c2)cc1 | 2.4 |
| COc1ccccc1N(C)S(=O)(=O)c1ccc(C)c(C(=O)NCc2ccccn2)c1 | 6.92 |
| O=[N+]([O-])c1ccc(Cl)cc1Sc1cccc2cccnc12 | 14.1 |

| Compound | hERG current change (%, negative = inhibition) at 1uM [%] |
| --- | --- |
| c1cc2c3c(cccc3c1)NC1(CCC3(CC1)Nc1cccc4cccc(c14)N3)N2 | 13.7 |
| COc1ccc(NC(=O)Nc2nc3c(s2)CCCC3)cc1 | -0.507 |
| O=C(COC(=O)c1ccc(F)cc1F)NC1CC1 | 22.9 |
| COCCCn1c(-c2ccco2)nc2ccccc2c1=O | 0.404 |
| Cc1cc(C)cc(N2C(=O)NC(=O)/C(=C\c3cccn3-c3ccccc3)C2=O)c1 | -0.0202 |
| CC(C)NC(=S)NN=C1CCC(c2ccccc2)CC1 (stereo not shown) | 11.9 |
| O=c1c2c(nc3c(-c4ccc(Cl)cc4)c[nH]n13)CCCC2 | -10.5 |
| CCOC(=O)c1c(C)oc2ccc(OS(C)(=O)=O)cc12 | 9.28 |
| Cc1ccc(CONC(=O)c2cccc([N+](=O)[O-])c2)cc1 | -0.0368 |
| Cc1ccc(N2CC(C(=O)Nc3nnc(SCC(=O)NCC4CCCO4)s3)CC2=O)cc1C (stereo not shown) | 7.64 |
| O=C(Nc1cccc([N+](=O)[O-])c1)Nc1ccc(Cl)cn1 | 9.25 |
| CCNC(=S)Nc1cc(OC)c(NC(=O)c2ccco2)cc1OC | 13.5 |
| O=C1N(Cc2cccc(Cl)c2)C[C@@H]2C[C@@H](c3ccccn3)N3CCC[C@@]123 | 7.23 |
| Cc1ccc(C)c(OCC(=O)NNC(=O)c2ccc(=O)[nH]c2)c1 | 11.4 |
| Cc1[nH]c2ccc(F)cc2c1CCN(Cc1ccco1)C(=S)NC(C)(C)C | 15.8 |
| S=C(NCCc1ccccc1)N1CCn2cccc2C1c1ccncc1 (stereo not shown) | 2.69 |
| CC(Sc1nnc(Nc2ccccc2)s1)C(=O)Nc1nc(-c2ccccc2)cs1 (stereo not shown) | 6.77 |
| COc1ccc(C(=O)C2CCN(CC(=O)Nc3ccc(OC)cc3OC)CC2)cc1 | -7.33 |
| COc1ccc(NC(=O)CN(C)CC(=O)NC(=O)NC2CCCCC2)cc1 | 5.98 |
| Cc1ccccc1N(CC(=O)NCCc1ccccc1)C(=O)c1ccc(N2CCCC2)nc1 | 8.49 |
| COc1cccc(OCc2nn[nH]n2)c1 | 16.5 |
| CN(C)CCn1c2c(c(SCC(=O)Nc3cccc(C(F)(F)F)c3)nc1=O)CCCC2 | -36.8 |

| Compound | hERG current change (%, negative = inhibition) at 1uM [%] |
| --- | --- |
| COC(=O)c1nnn(CC(=O)NC(=O)Nc2cccc(Cl)c2C)c1C(=O)OC | 12.7 |
| O=C(Cc1cc(=O)oc2cc(O)ccc12)NC(Cc1ccc(Cl)cc1)C(=O)O (stereo not shown) | 17.3 |
| CCCC(=O)N/N=C1\CS(=O)(=O)N(C)c2ccsc21 | 8.79 |
| CCOC(=O)c1oc2ccc(S(=O)(=O)N3CCC(C)CC3)cc2c1C | 7.49 |
| COc1cc(OC)cc(C(=O)N2CCN(C(=O)COc3ccc4ccccc4c3)CC2)c1 | -4.51 |
| CCc1nnc(NS(=O)(=O)c2ccc(N/C=C(\C=O)c3nc4cc(Cl)ccc4o3)cc2)s1 | 13.9 |
| Cc1nn(Cc2nc(-c3cccs3)no2)c(C)c1Br | 5.21 |
| COc1ccc(NC(=O)N2CCCC(c3ccccc3)C2)cc1 (stereo not shown) | 6.78 |
| COc1ccc(OC)c(NC(=O)CN(c2ccc(C(C)C)cc2)S(=O)(=O)c2c(C)noc2C)c1 | 10.2 |
| Fc1ccc(CSc2nnc(-c3cccs3)o2)cc1 | 3.22 |
| CCOc1cc(/C=C2/SC(=S)NC2=O)ccc1OC(=O)c1ccco1 | 14.3 |
| CC(=O)c1c(N2CCN(CCO)CC2)nc(=S)n(-c2ccccc2)c1C | 4.96 |
| CCC(C)(C)NC(=O)c1ccc2c(c1)OCCO2 | 12 |
| O=C(NCC1CCCO1)c1sc2cc(Cl)ccc2c1Cl (stereo not shown) | 11.4 |
| CCC(=NCC1CCCO1)c1c(O)n(-c2ccccc2)c(=O)[nH]c1=O (stereo not shown) | 7.58 |
| COc1ccc(Br)c(C(=O)Nc2ccc(F)cc2)c1 | 4.38 |
| O=C(COc1cccc2cccnc12)Nc1ccccc1 | 6.39 |
| CCCCc1nnc(SCC(=O)Nc2nccs2)n1CC | 12.9 |
| CN(C)c1ccc(/C=C2\CCCc3c2nc2ccccc2c3C(=O)O)cc1 | 15.2 |
| CN(C)C(=O)c1ccccc1Sc1ccc(Cl)cc1Cl | -27.3 |
| CCOC(=O)C1=C(C)N(C)C(=S)NC1c1ccc(Cl)cc1 (stereo not shown) | 9.34 |
| COc1ccc(CC(=O)Nn2c(-c3ccccc3)nc3ccccc3c2=O)cc1 | 4.63 |

| Compound | hERG current change (%, negative = inhibition) at 1uM [%] |
| --- | --- |
| O=C(CSc1nnc2n(C3CCCC3)c(=O)c3ccccc3n12)N1CCCCCC1 | -4.8 |
| O=C(Nc1ccc(Cl)c(Cl)c1)OCc1cnc(Cl)s1 | 4.53 |
| COc1ccc(OC)c(-c2csc(NC(=O)CSc3ccc([N+](=O)[O-])cc3)n2)c1 | 14.9 |
| CC1Oc2ccccc2N(CC(=O)Nc2ccccc2F)C1=O (stereo not shown) | 19.1 |
| Cn1c(SCC(=O)NCc2ccccc2)ncc(C(=O)Nc2ccccc2)c1=O | -8.46 |
| Cc1c(C(N)=O)sc2nc(-c3ccccc3)cn12 | 3.67 |
| C=CCNC(=O)c1cc2c(=O)n3cccc(C)c3nc2s1 | 8.75 |
| OC(COc1ccc(-c2ccccc2)cc1)CN1CCOCC1 (stereo not shown) | 5.23 |
| O=C(COc1ccccc1Cl)Nc1ccccc1C(=O)N1CCOCC1 | -7.15 |
| Cc1ccc(NC(=O)Nc2ccc(S(N)(=O)=O)cc2)cc1 | 2.75 |
| COc1cc(/C=N/NC(=O)Cn2ccc(C(F)(F)F)n2)cc(OC)c1OC | 5.05 |
| CNCC(O)c1ccc(OC(=O)C(C)(C)C)c(OC(=O)C(C)(C)C)c1.Cl (stereo not shown) | 10.3 |
| COc1ccc(NC2CCCCC2NS(=O)(=O)c2ccc(C)cc2)cc1 (stereo not shown) | 13.2 |
| COCCNS(=O)(=O)c1ccc2c(c1)Cc1cc(S(=O)(=O)NCCOC)ccc1-2 | -2.46 |
| CC(C(=O)N1CCOCC1)(c1ccccc1)c1ccccc1 | 10.4 |
| CN(C)S(=O)(=O)c1ccc(/C(O)=C2/C(=O)C(=O)N(CCCN3CCOCC3)C2c2ccncc2)cc1 (stereo not shown) | 15 |
| O=C1NCCCC1C(=O)N1CCN(C(c2ccccc2)c2ccccc2)CC1 (stereo not shown) | -1.39 |
| O=C(N/N=C/c1cccnc1)c1cc(-c2ccccc2)nc2ccccc12 | -0.466 |
| COc1ccc(OC)c(NC(=O)COC(=O)/C=C/c2ccccc2Cl)c1 | 5.99 |
| O=S(=O)(Nc1ccc(N2CCOCC2)cc1)c1ccccc1 | 13.8 |
| COc1cc2c3nnc(-c4ccc(F)cc4)c-3cn(Cc3ccc(F)cc3)c2cc1OC | -5.13 |
| Cl.Oc1ccc(-c2csc(Nc3cccc4ccccc34)n2)cc1O | 11.8 |

Reference: PMC4336329 (PLoS ONE, 2015)
